# Experimental data as given in the supplement of paper PMC12217912.
# The list shows a part of the results. Sequences were assembled here from the parent chain. Values near 0.05 are background.
# B1: TEV protease; numbered along this chain (parent)
# chain: MGESLFKGPRDYNPISSSICHLTNESDGHTTSLYGIGFGPFIITNKHLFRRNNGTLVVQSLHGVFKVKDTTTLQQHLVDGRDMIIIRMPKDFPPFPQKLKFREPQREERICLVTTNFQTKSMSSMVSDTSCTFPSGDGIFWKHWIQTKDGQCGSPLVSTRDGFIVGIHSASNFTNTNNYFTSVPKNFMELLTNQEAQQWVSGWRLNADSVLWGGHKVFMVKPEEPFQPVKEATQL
# Variants of: B1
# Assay: raw area under fraction-flipped curve 0-4 h after induction (AUC4h, not background-subtracted), DNA-recorder readout of cleavage of the substrate (dimensionless); higher = more cleavage of the substrate by the protease variant
# Conditions: temperature: 34 °C; time window: 0-4 h after rhamnose induction
# Procedure: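 In vivo DNA recorder in E. coli TOP10(DE3) ΔrhaA at 34 °C. Each TEVp single-site mutant (parent TEVp 0) is paired with a single-site variant of the 7-mer TEVs (canonical ENLYFQ|S). The substrate sits between flexible linkers in a Bxb1-sfGFP-TEVs-SsrA fusion, so cleavage stabilises Bxb1 and speeds flipping of a recombination array, read by NGS. The value is the raw area under the fraction-flipped curve over 0-4 h after rhamnose induction (AUC4h), with ≥20 reads per time point. It is not background-subtracted; inactive controls average about 0.047.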
# 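Note: Bxb1 expression induced with 0.2% (w/v) L-rhamnose at OD600 near 0.5, cultures sampled hourly, flipped fraction per protease–substrate barcode pair counted by paired-end Illumina sequencing.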
Variant,area with substrate ENLDFQS,area with substrate ENLFFQS,area with substrate ENLHFQS,area with substrate ENLIFQS,area with substrate ENLKFQS,area with substrate ENLLFQS,area with substrate ENLMFQS,area with substrate ENLNFQS,area with substrate ENLPFQS,area with substrate ENLRFQS,area with substrate ENLSFQS,area with substrate ENLEFQS,area with substrate ENLGFQS,area with substrate ENLQFQS,area with substrate ENLWFQS,area with substrate ENLVFQS,area with substrate ENLTFQS
MGESLFKGPRDYNPISSSICHLTNESDGHTTSLYGIGFGPFIITNKPLFRRNNGTLVVQSLHGVFKVKDTTTLQQHLVDGRDMIIIRMPKDFPPFPQKLKFREPQREERICLVTTNFQTKSMSSMVSDTSCTFPSGDGIFWKHWIQTKDGQCGSPLVSTRDGFIVGIHSASNFTNTNNYFTSVPKNFMELLTNQEAQQWVSGWRLNADSVLWGGHKVFMVKPEEPFQPVKEATQL [H47P],0.0552,0.0541,0.0569,0.0694,0.065,0.0544,0.101,0.0655,0.0741,0.0636,0.0452,,,,,,
MGESLFKGPRDYNPISSSICHLTNESDGHTTSLYGIGFGPFIITNKHLFRRNNGTLVFQSLHGVFKVKDTTTLQQHLVDGRDMIIIRMPKDFPPFPQKLKFREPQREERICLVTTNFQTKSMSSMVSDTSCTFPSGDGIFWKHWIQTKDGQCGSPLVSTRDGFIVGIHSASNFTNTNNYFTSVPKNFMELLTNQEAQQWVSGWRLNADSVLWGGHKVFMVKPEEPFQPVKEATQL [V58F],0.0539,,,,0.0788,,,0.0552,,,0.0803,0.0469,0.0407,0.0745,,,
MGESLFKGPRDYNPISSSICHLTNESDGHTTSLYGIGFGPFIITNKHLFRRNNGTLVVFSLHGVFKVKDTTTLQQHLVDGRDMIIIRMPKDFPPFPQKLKFREPQREERICLVTTNFQTKSMSSMVSDTSCTFPSGDGIFWKHWIQTKDGQCGSPLVSTRDGFIVGIHSASNFTNTNNYFTSVPKNFMELLTNQEAQQWVSGWRLNADSVLWGGHKVFMVKPEEPFQPVKEATQL [Q59F],0.0597,0.0826,0.0609,0.0781,0.0727,,,0.0914,,,,,,,0.0492,,
MGESLFKGPRDYNPISSSICHLTNESDGHTTSLYGIGFGPFIITNKHLFRRNNGTLVVQSLWGVFKVKDTTTLQQHLVDGRDMIIIRMPKDFPPFPQKLKFREPQREERICLVTTNFQTKSMSSMVSDTSCTFPSGDGIFWKHWIQTKDGQCGSPLVSTRDGFIVGIHSASNFTNTNNYFTSVPKNFMELLTNQEAQQWVSGWRLNADSVLWGGHKVFMVKPEEPFQPVKEATQL [H62W],0.0749,0.0859,0.0606,,0.081,,,0.0837,,0.0505,0.0726,0.0739,,0.0645,0.0624,0.0816,
MGESLFKGPRDYNPISSSICHLTNESDGHTTSLYGIGFGPFIITNKHLFRRNNGTLVVQSLHGVFKVKNTTTLQQHLVDGRDMIIIRMPKDFPPFPQKLKFREPQREERICLVTTNFQTKSMSSMVSDTSCTFPSGDGIFWKHWIQTKDGQCGSPLVSTRDGFIVGIHSASNFTNTNNYFTSVPKNFMELLTNQEAQQWVSGWRLNADSVLWGGHKVFMVKPEEPFQPVKEATQL [D69N],0.0643,0.0885,,,0.116,,,,0.0717,,,0.0901,,,0.0514,0.146,0.0641
MGESLFKGPRDYNPISSSICHLTNESDGHTTSLYGIGFGPFIITNKHLFRRNNGTLVVQSLHGVFKVKDTTTWQQHLVDGRDMIIIRMPKDFPPFPQKLKFREPQREERICLVTTNFQTKSMSSMVSDTSCTFPSGDGIFWKHWIQTKDGQCGSPLVSTRDGFIVGIHSASNFTNTNNYFTSVPKNFMELLTNQEAQQWVSGWRLNADSVLWGGHKVFMVKPEEPFQPVKEATQL [L73W],0.0698,0.0839,,,,,,0.0687,0.0361,,,0.0575,,0.0484,,,
MGESLFKGPRDYNPISSSICHLTNESDGHTTSLYGIGFGPFIITNKHLFRRNNGTLVVQSLHGVFKVKDTTTLQQHLVDGRGMIIIRMPKDFPPFPQKLKFREPQREERICLVTTNFQTKSMSSMVSDTSCTFPSGDGIFWKHWIQTKDGQCGSPLVSTRDGFIVGIHSASNFTNTNNYFTSVPKNFMELLTNQEAQQWVSGWRLNADSVLWGGHKVFMVKPEEPFQPVKEATQL [D82G],0.052,0.0571,0.0628,0.0656,0.0662,0.054,0.0558,0.0665,0.0727,,,0.0552,,0.0582,0.0464,0.0568,
MGESLFKGPRDYNPISSSICHLTNESDGHTTSLYGIGFGPFIITNKHLFRRNNGTLVVQSLHGVFKVKDTTTLQQHLVDGRDMFIIRMPKDFPPFPQKLKFREPQREERICLVTTNFQTKSMSSMVSDTSCTFPSGDGIFWKHWIQTKDGQCGSPLVSTRDGFIVGIHSASNFTNTNNYFTSVPKNFMELLTNQEAQQWVSGWRLNADSVLWGGHKVFMVKPEEPFQPVKEATQL [I84F],0.0592,0.0563,0.079,0.0535,0.0617,0.0595,,,0.0719,,0.0559,,,,,,
MGESLFKGPRDYNPISSSICHLTNESDGHTTSLYGIGFGPFIITNKHLFRRNNGTLVVQSLHGVFKVKDTTTLQQHLVDGRDMIIIRMPKDEPPFPQKLKFREPQREERICLVTTNFQTKSMSSMVSDTSCTFPSGDGIFWKHWIQTKDGQCGSPLVSTRDGFIVGIHSASNFTNTNNYFTSVPKNFMELLTNQEAQQWVSGWRLNADSVLWGGHKVFMVKPEEPFQPVKEATQL [F92E],0.0509,0.0551,0.0595,,0.0722,,,0.0612,0.058,,0.061,0.0528,,,0.0576,,
MGESLFKGPRDYNPISSSICHLTNESDGHTTSLYGIGFGPFIITNKHLFRRNNGTLVVQSLHGVFKVKDTTTLQQHLVDGRDMIIIRMPKDYPPFPQKLKFREPQREERICLVTTNFQTKSMSSMVSDTSCTFPSGDGIFWKHWIQTKDGQCGSPLVSTRDGFIVGIHSASNFTNTNNYFTSVPKNFMELLTNQEAQQWVSGWRLNADSVLWGGHKVFMVKPEEPFQPVKEATQL [F92Y],0.0507,0.0798,0.0706,0.0845,0.0734,,0.0542,,0.0404,,0.07,0.05,,0.0746,,,
